Data published in article PMC6919601, “Identification of Plasmodium dipeptidyl aminopeptidase allosteric inhibitors by high throughput screening” (PLoS ONE, 2019).
Out of some 110,000 compounds screened, about 230 (0.21%) showed an effect of 50% or more. The list shows a part of the results.

Biological target: DPAP1 (Plasmodium falciparum, UniProt Q8IIJ9)
Experiment: primary screen, percent inhibition; read by cleavage of a fluorogenic dipeptide substrate; higher = more effect of the substance
Parameters: species or system P. falciparum D10 trophozoite lysates; single well
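Note: 30 min substrate incubation versus DMSO and 10 µM JCP410 controls.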

DPAP1, sequence (Q8IIJ9 whole entry, looked up): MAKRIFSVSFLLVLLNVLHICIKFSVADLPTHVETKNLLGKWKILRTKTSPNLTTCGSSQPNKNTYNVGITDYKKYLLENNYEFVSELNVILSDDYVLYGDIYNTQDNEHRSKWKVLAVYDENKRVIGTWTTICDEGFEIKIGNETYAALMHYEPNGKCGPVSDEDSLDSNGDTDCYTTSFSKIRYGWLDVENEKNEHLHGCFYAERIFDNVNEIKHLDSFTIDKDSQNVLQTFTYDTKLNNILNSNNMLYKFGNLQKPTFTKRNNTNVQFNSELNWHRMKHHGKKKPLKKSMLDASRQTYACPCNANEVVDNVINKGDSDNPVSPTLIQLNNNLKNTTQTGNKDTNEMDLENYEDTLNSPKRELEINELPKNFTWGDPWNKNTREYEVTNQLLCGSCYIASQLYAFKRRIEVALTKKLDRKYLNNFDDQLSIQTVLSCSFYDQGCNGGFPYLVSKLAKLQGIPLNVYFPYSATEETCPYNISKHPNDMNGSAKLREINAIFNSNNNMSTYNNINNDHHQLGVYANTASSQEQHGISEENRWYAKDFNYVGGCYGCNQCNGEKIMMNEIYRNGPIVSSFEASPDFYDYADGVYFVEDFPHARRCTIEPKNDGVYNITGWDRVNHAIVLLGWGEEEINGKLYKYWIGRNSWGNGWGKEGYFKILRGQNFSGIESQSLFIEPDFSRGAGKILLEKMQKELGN

Structure (SMILES)	% Inhibition @ 10 uM [%]
N#C/C(=C\Nc1ccc(C(N)=O)cc1)c1nc(-c2ccc(F)cc2)cs1	-9.05
CCCCSc1nnc2c(n1)-c1cccc3cccc-2c13	9.51
Cc1c2c(cc3c4c(c(=O)oc13)CCC4)CN(Cc1ccccc1)CO2	-2.57
CN1CCC(N(C)Cc2ccc([N+](=O)[O-])s2)CC1	-3.71
Cc1ccc(-c2ncnc3c(C#N)c4ccccn4c23)cc1	-4.19
O=C(O)c1cc2ccccc2c(=O)s1	-3.76
COc1ccc(/C=C2/C(=O)N(c3ccc([N+](=O)[O-])cc3)N=C2C)c(OC)c1	-0.999
CCOC(=O)N1CCN(C(=O)c2cc(S(=O)(=O)N3CCCC3)c[nH]2)CC1	-7.19
COc1cc(C2C3=C(O)CC(C)(C)CC3=NC3=C2C(=O)CC(C)(C)C3)cc(Br)c1OC (stereo not shown)	3.96
CC1CC(C)CN(C(=O)c2ccc(CNS(=O)(=O)c3ccc(F)cc3)cc2)C1 (stereo not shown)	-0.971
O=C(CCC(=O)n1ncc2ccccc21)N1CCCCC1	5.42
COc1ccc(C(=O)NCCSCc2ccco2)cc1OC	-3.14
CC(C)CC(C(=O)NCC#N)c1ccc(NC(=O)Nc2ccncc2)cc1 (stereo not shown)	2.22
CCS(=O)(=O)N1CCC2(CC1)OC(=O)C(C)=C2C(=O)N1CCN(C2CCCCC2)CC1	-2.68
COc1cccc(-c2noc(C(=O)NCCCn3ccnc3)n2)c1	4.58
CCCCNC(=O)Nc1ccccc1C(=O)Nc1ccc(OC)cc1	-1.11
CCOc1ccccc1/C=C1/N=C(c2cccc(Cl)c2Cl)OC1=O	-0.77
O=C(O)c1ccc(N2C(=O)C3CCCCC3C2=O)cc1 (stereo not shown)	-1.22
CN(Cc1ccccc1)C(=O)NCc1noc2ccccc12	-4.04
COc1ccc(-c2nc(CS(=O)CC(=O)N3CCN(C)CC3)c(C)o2)cc1 (stereo not shown)	-4.71
COc1ccc(-c2nnc3ccc(SCC(=O)Nc4nnc(C)s4)nn23)cc1OC	-5.05
CC(C)(C)NC(=O)c1ccccc1	4.54
COc1ccc(CC(=O)N2CCN(Cc3noc(CCC(=O)N4CCOCC4)n3)CC2)cc1	3.8
CSc1nc(-c2ccccc2)nc(Nc2nc(C)cc(C)n2)c1C(C)=O	-1.82
Cc1ccc(C(=O)Nc2cccnc2)cc1C	2.44
CC1CC(C)CN(C(=O)CCCc2nnc3n(C)c(=O)c4sccc4n23)C1 (stereo not shown)	-0.326
Cc1ccc2c(c1)C1(C(=O)N2)C(C#N)=C(N)OC2=C1C(=O)CCC2 (stereo not shown)	-0.725
COc1c(Cl)cc(Cl)cc1C1C(C#N)=C(N)Oc2[nH]nc(-c3cccs3)c21 (stereo not shown)	-6.37
